Our source for the enrichment score values is the supplement of paper PMC10369915.

This is one part of the list. No stated cut-off is given here; in the data, active = 3.2 or more and inactive = the rest. Only a few entries rise above the background.

Targets include SHP2 C-SH2 domain E139D; SHP2 N-SH2 domain L43F; SHP2 N-SH2 domain T42A; SHP2 N-SH2 domain T52S.
Common to all, as to test: enrichment score (SH2-bound / input frequency) (ratio); bacterial display of known human phosphotyrosine sites (pTyr-Var adds point mutants) read by sequencing; higher = stronger binding; tyrosines were phosphorylated by kinases first
Common to all, as to details: peptide library: pTyr-Var

Experiment [1] has as its target SHP2 C-SH2 domain wild-type.
For experiment [2], the target named is SHP2 N-SH2 domain wild-type.
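Further: displayed peptides selected on beads carrying the immobilized SH2 domain, with library peptides lacking any tyrosine serving as negative controls.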

Consider DIMDLYNQPEP [IL36A_Y96], for which the enrichment score with SHP2 C-SH2 domain E139D was inactive: 0.762; in experiment [1], inactive: 0.744; with SHP2 N-SH2 domain L43F, inactive: 0.748; in the experiment with SHP2 N-SH2 domain T42A, inactive: 0.624; in the experiment with SHP2 N-SH2 domain T52S it was inactive: 0.808; in experiment [2], inactive: 1.03.
SLDHPYEKPRK [INAVA_Y333]: the enrichment score is inactive: 0.554 in the experiment with SHP2 C-SH2 domain E139D; inactive: 0.74 in experiment [1]; inactive: 0.593 in the experiment with SHP2 N-SH2 domain L43F; inactive: 0.606 with SHP2 N-SH2 domain T42A; inactive: 0.545 in the experiment with SHP2 N-SH2 domain T52S; inactive: 0.629 in experiment [2].
In the case of TFHNTYHSHMR [IL1RAPL1_Y615_Q618H], the enrichment score in the experiment with SHP2 C-SH2 domain E139D was inactive: 2.53; in experiment [1] it was inactive: 3.01; with SHP2 N-SH2 domain L43F, inactive: 2.67; with SHP2 N-SH2 domain T42A, inactive: 2.52; with SHP2 N-SH2 domain T52S, inactive: 3.09; in experiment [2] it was inactive: 2.65.
Turning to SLDHPFEKPRK [INAVA_Y333_Y333F], the enrichment score with SHP2 C-SH2 domain E139D is inactive: 0.741; in experiment [1] it was inactive: 0.723; in the experiment with SHP2 N-SH2 domain L43F, inactive: 0.74; with SHP2 N-SH2 domain T42A, inactive: 0.722; in the experiment with SHP2 N-SH2 domain T52S, inactive: 0.631; in experiment [2], inactive: 0.71.
Turning to IFETDYFRKGG [INSR_Y1189_YF], the enrichment score in the experiment with SHP2 C-SH2 domain E139D was inactive: 0.821; in experiment [1], inactive: 0.846; in the experiment with SHP2 N-SH2 domain L43F it was inactive: 0.836; with SHP2 N-SH2 domain T42A, inactive: 0.623; with SHP2 N-SH2 domain T52S it was inactive: 0.739; in experiment [2], inactive: 0.819.
Take DTKDDYNALSV [IL17RB_Y457]: the enrichment score was inactive: 0.447 in the experiment with SHP2 C-SH2 domain E139D; inactive: 0.494 in experiment [1]; inactive: 0.56 with SHP2 N-SH2 domain L43F; inactive: 0.471 in the experiment with SHP2 N-SH2 domain T42A; inactive: 0.473 with SHP2 N-SH2 domain T52S; inactive: 0.687 in experiment [2].
With EQLLDYTRTVQ [INPP5E_Y439_R435Q], the enrichment score in the experiment with SHP2 C-SH2 domain E139D is inactive: 0.887; in experiment [1], inactive: 0.852; with SHP2 N-SH2 domain L43F, inactive: 0.901; in the experiment with SHP2 N-SH2 domain T42A, inactive: 0.746; with SHP2 N-SH2 domain T52S, inactive: 0.887; in experiment [2] it was inactive: 0.674.
On to FQLENCCNGGG [INS_Y108_Y108C_YF], for which the enrichment score in the experiment with SHP2 C-SH2 domain E139D was inactive: 0.692; in experiment [1], inactive: 0.646; in the experiment with SHP2 N-SH2 domain L43F, inactive: 1.11; with SHP2 N-SH2 domain T42A, inactive: 0.768; in the experiment with SHP2 N-SH2 domain T52S, inactive: 0.6; in experiment [2] it was inactive: 0.729.
In the case of RIDPDYVGRVR [IGSF9_Y81], the enrichment score is inactive: 0.599 with SHP2 C-SH2 domain E139D; inactive: 0.704 in experiment [1]; inactive: 0.711 in the experiment with SHP2 N-SH2 domain L43F; inactive: 0.564 with SHP2 N-SH2 domain T42A; inactive: 0.538 with SHP2 N-SH2 domain T52S; inactive: 0.712 in experiment [2].
As for VICRRYLVMQR [IL3RA_Y328], the enrichment score was inactive: 0.334 with SHP2 C-SH2 domain E139D; inactive: 0.331 in experiment [1]; inactive: 0.291 in the experiment with SHP2 N-SH2 domain L43F; inactive: 0.325 with SHP2 N-SH2 domain T42A; inactive: 0.269 in the experiment with SHP2 N-SH2 domain T52S; inactive: 0.228 in experiment [2].
SFPPTYRFERG [INPPL1_Y661_YF]: the enrichment score with SHP2 C-SH2 domain E139D is inactive: 0.993; in experiment [1], inactive: 0.79; with SHP2 N-SH2 domain L43F, inactive: 0.773; in the experiment with SHP2 N-SH2 domain T42A, inactive: 0.685; in the experiment with SHP2 N-SH2 domain T52S, inactive: 0.807; in experiment [2] it was inactive: 0.826.
Regarding FETDFYRKGGK [INSR_Y1190_YF], the enrichment score was inactive: 0.395 with SHP2 C-SH2 domain E139D; inactive: 0.347 in experiment [1]; inactive: 0.565 with SHP2 N-SH2 domain L43F; inactive: 0.534 with SHP2 N-SH2 domain T42A; inactive: 0.493 with SHP2 N-SH2 domain T52S; inactive: 0.433 in experiment [2].
Turning to VMSGPYNLKAL [IL1B_Y140_E141N], the enrichment score with SHP2 C-SH2 domain E139D was inactive: 0.981; in experiment [1], inactive: 0.755; in the experiment with SHP2 N-SH2 domain L43F it was inactive: 1.02; with SHP2 N-SH2 domain T42A, inactive: 0.991; in the experiment with SHP2 N-SH2 domain T52S it was inactive: 0.997; in experiment [2], inactive: 0.782.
Turning to PSTYRYERGSR [INPPL1_Y663_P659S], the enrichment score with SHP2 C-SH2 domain E139D is inactive: 0.292; in experiment [1], inactive: 0.408; with SHP2 N-SH2 domain L43F, inactive: 0.371; in the experiment with SHP2 N-SH2 domain T42A, inactive: 0.411; in the experiment with SHP2 N-SH2 domain T52S, inactive: 0.255; in experiment [2] it was inactive: 0.372.
Consider SFPPTYRYERG [INPPL1_Y661], for which the enrichment score with SHP2 C-SH2 domain E139D was inactive: 0.658; in experiment [1], inactive: 0.751; with SHP2 N-SH2 domain L43F, inactive: 0.743; with SHP2 N-SH2 domain T42A, inactive: 0.753; in the experiment with SHP2 N-SH2 domain T52S, inactive: 0.84; in experiment [2] it was inactive: 0.525.
With KYVVVYFRETD [IL17RB_Y447_I451T], the enrichment score was active: 4.48 with SHP2 C-SH2 domain E139D; active: 4.69 in experiment [1]; active: 9.54 in the experiment with SHP2 N-SH2 domain L43F; active: 8.72 in the experiment with SHP2 N-SH2 domain T42A; active: 11.4 with SHP2 N-SH2 domain T52S; active: 4.66 in experiment [2].
As to YETDYYQKGGK [INSR_Y1190_R1191Q], the enrichment score in the experiment with SHP2 C-SH2 domain E139D was inactive: 0.704; in experiment [1], inactive: 0.457; in the experiment with SHP2 N-SH2 domain L43F, inactive: 0.739; with SHP2 N-SH2 domain T42A, inactive: 0.587; with SHP2 N-SH2 domain T52S, inactive: 0.509; in experiment [2], inactive: 0.608.
As for EEHIPCTHMNG [INSR_Y1361_Y1361C], the enrichment score was inactive: 1.59 with SHP2 C-SH2 domain E139D; inactive: 2.53 in experiment [1]; inactive: 2.13 with SHP2 N-SH2 domain L43F; inactive: 1.6 with SHP2 N-SH2 domain T42A; inactive: 2.46 in the experiment with SHP2 N-SH2 domain T52S; inactive: 2.07 in experiment [2].
